# Reference: the supplement of paper PMC11417369
# ± gives the standard deviation of the averaged measurements. The list shows a part of the results.
# System: PfAP2-EXP AP2 domain (GST-tagged)
# Test: gcPBM binding intensity (ln(normalized median fluorescence intensity)); higher = stronger DNA binding
# In short: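 Binding intensity is defined as the maximum Masliner-normalised natural-log median intensity across replicate spots for either probe orientation. It was measured on an Agilent 4 × 180k array of primer-extended double-stranded 36-bp intergenic genomic probes and negative controls, to which GST-tagged P. falciparum DNA-binding domains made in E. coli were applied for 1 h in 1× PBS with 1% milk, 0.2 mg/ml BSA, 0.5% salmon testes DNA and 0.03% Triton X-100. Detection was by Alexa488 anti-GST antibody and scanning at 488 nm.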
row,Sequence,gcPBM binding intensity (ln)
1,TGACCTGTTCAGGTAACACACATATAAACCCATACA [CACACA_site31],8.67 ± 0.44
2,ATGCTATAGGATCTTACACACATTTTTGTAAAAAAA [CACACA_site1868],8.39 ± 0.39
3,TATATATATATATATGTGCACTGAAAGAATTATACA [GTGCAC_site9586],10.1 ± 0.14
4,TTTTTCTAATTATGCACACATATCAAAATATTCAAT [CACACA_site2749],8.62 ± 0.028
5,GCTCAATTTTTGGGTACACACAAATGTATAAGAATA [CACACA_site7178],8.61 ± 0.22
6,TATTTATTTTATATATGTACATAATATATTCTTATA [XGTACX_site1619],8.62 ± 0.3
7,ATATATATAGAAATATGTACGAAAAAAATATCACAT [XGTACX_site746],8.88 ± 0.73
8,AAAATCAAAAAAACAAGTACAAATGTGGACTTTTTT [XGTACX_site5363],8.41 ± 0.29
9,TGTTCTATGGTTTGTAGTACTTTAATAAATATAAAT [XGTACX_site7823],8.79 ± 0.33
10,TCAAAAAAAAAAAAAAAAAAAAAAAAAAAAAAAAAA [CACACA_negctrl_site1753],8.04 ± 0.22
11,AATAAGCTCACGTGTCGTACATTTTTTAAAACAACC [XGTACX_site4707],8.8 ± 0.37
12,TATATTAAACATATATGTACATATTTTTTCTGAACA [XGTACX_site5390],8.53 ± 0.24
13,AATATCAATGATGTTACATGCAAGAGAATCCACAAA [TGCATGCA_site678],9.07 ± 0.2
14,ACCAAATCATATATAGCACACAAATTCTTTATTATT [CACACA_site8911],8.54 ± 0.37
15,AATATTTTCTGTAATACTTCTTTTCAATTTATTTCG [CACACA_negctrl_site1390],8.76 ± 0.45
16,TATTGTTTTTTTGATTTTTTTTTTTTTTTTAATGAA [CACACA_negctrl_site824],8.14 ± 0.58
17,ACGTAAAATTATTATTGTACATGTAAATAATTTGGA [XGTACX_site8154],8.57 ± 0.23
18,ATTTACATTCACTTATGTACTTATATAATTTTATTT [XGTACX_site8150],8.77 ± 0.38
19,TACATATGAAAATACACACATACATACATATATATA [CACACA_site1673],8.63 ± 0.15

row,Sequence,gcPBM binding intensity (ln)
1,TATATAATATATATTTTATATTTGTAATAATTTTTT [GTGCAC_negctrl_site497],8.06 ± 0.31
2,AATGTATAATTATAATGTACAAATAATATATAATAT [XGTACX_site5407],8.73 ± 0.42
3,TAACTCCACAAATAATGTACATATATCACTATATTT [XGTACX_site4911],8.66 ± 0.33
4,AAGCTTCCTTAATATACACACATATCTGAGTATATT [CACACA_site5939],8.49 ± 0.57
5,AGATAAAAAAAGTACACACACACATATATATATATA [CACACA_site3072],10.2 ± 0.26
6,CAAAATATAGATGACACACACAAAAAAAGTATATTA [CACACA_site6848],8.54 ± 0.51
7,CATTTACCCTTATTAACACACAAAATATAATACGCT [CACACA_site2565],8.54 ± 0.4
8,TTCTTGGAATACAAGTGTACTTTATTATTATTATTA [XGTACX_site5997],8.32 ± 0.4
9,ATAGAAAGTGACAATTGTACATACATATTATATATA [XGTACX_site4390],8.71 ± 0.32
10,TTTTTTTTTGCCTACTGTACTATTTTTGAGCTCACC [XGTACX_site7967],9.02 ± 0.35
11,AAAAAAAAAAAAAAAAAAAAATTTCAATTATATTGA [GTGCAC_negctrl_site642],8.87 ± 0.14
12,AAAATTATAATATATACACACATATATATATTAAAT [CACACA_site473],8.21 ± 0.35
13,TTTTTTTTTTTGTTCACACATATACTTTTATTTTGG [CACACA_site4250],8.72 ± 0.47
14,AATGCTATCATTAATGCACACATTTAAACTTAATAT [CACACA_site5878],8.595 ± 0.049
15,TATAACGCTTGCAGCTGTACAAAAATAATCAAACTG [XGTACX_site2464],8.78 ± 0.54
16,AAAAGATTTATACATACACACATATTATAGTCACAT [CACACA_site7701],8.63 ± 0.36
17,CAAATTTAAAAAAAATCACACACAGAAAAAAAAAAA [CACACA_site8728],8.51 ± 0.45
18,CAAGAAAATGGACACACACACATATATATATATATA [CACACA_site6010],10 ± 0.47
19,TACACCCTATTTTTATGTACTTATTTGATTTACACA [XGTACX_site8172],8.91 ± 0.39

row,Sequence,gcPBM binding intensity (ln)
1,ATATAAATACGGTGTGCACACACATAATATATATAT [CACACA_site2271],9.38 ± 0.071
2,GGAAACCTTTTTTTTACACACAATATATTAATACTT [CACACA_site1403],8.49 ± 0.34
3,TTTGTTTTAAATATTATACACACGTAAAAGTAGAAT [CACACA_site214],8.73 ± 0.38
4,GTGTAATTATCAGCATAAATATGGTACATACATAAA [CACACA_negctrl_site323],8.64 ± 0.26
5,TGTATACGCATATGTACACACATATATATGTATATG [CACACA_site3087],8.65 ± 0.16
6,TTAAAAGAATATAATGCACACATTATTTTATTTTAT [CACACA_site3772],8.1 ± 0.2
7,AAAAAAAACGAACACACACACATACAAAATCTATAT [CACACA_site6795],8.61 ± 0.6
8,TATACGAAATTGTGCACACATATATTTATGTATGTA [CACACA_site1509],8.57 ± 0.2
9,AATACATAATAACATGTACACACATTCTTCTATAAA [CACACA_site9344],8.54 ± 0.33
10,TACCCACGTATATATATACACACTAATATACACCCA [CACACA_site9381],8.87 ± 0.65
11,TTAAATGAAAAAATATGTACGTATAATAAGAAATAT [XGTACX_site6619],8.98 ± 0.38
12,TATTTTTTCTTAAACACACACATATATATATAGAAT [CACACA_site2836],8.62 ± 0.53
13,TTTTTTCTTAGTTATACATGCAAAATAAATAAATAA [TGCATGCA_site410],8.93 ± 0.43
14,GTATGAGTCGTAGAGTGTACTCTGGAGAAAACTACA [XGTACX_site4942],8.53 ± 0.33
15,TATATATTTATTAAATGTACATAACAAAAATGGTAT [XGTACX_site3577],8.91 ± 0.35
16,ATTTATATATAATTTTGTACGAAAAAAATAAGGTAT [XGTACX_site3578],8.9 ± 0.41
17,AAATAAAGTAAAATATGTACATAAATTAAAACACAT [XGTACX_site8539],9.13 ± 0.38
18,TGCATACATAAATGTATATATTAATATATATCATAT [GTGCAC_negctrl_site252],8.33 ± 0.37
